From PubChem BioAssay AID651820 (National Center for Advancing Translational Sciences (NCATS), 2012)
Values joined by “and” are separate entries in the source; they are usually repeats but may differ in a detail not shown here. Identical values can stand only once. Among all 340,000 compounds or so, about 12,000 (3.5%) were called active. Inconclusive means that the source gave no clear call. Such entries were picked first, then a sample of the others. Calls follow the shape of the dose curve; as a rule, active = well fitted inhibition curve with a large enough effect; inconclusive = small, poorly fitted or top-dose-only effect, or another doubt; inactive = no such curve, though single readings can be large or run the other way. Where the call is inconclusive, the potency comes from a doubtful curve fit.

Test: qHTS Assay for Inhibitors of Hepatitis C Virus (HCV)
Conditions: Huh7.5.1 HCVcc-Cre (HCVcc is cell-culture hepatitis C virus) infection, luciferase reporter, 44 h; series mostly up to 41.8 µM
In short: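 Whole-lifecycle infectious HCVcc-Cre system; cells 1,000/well, compound then virus (~0.5 moi) added 4 h after plating, 44 h culture. Luciferase read 15 sec following 15 min substrate incubation, room temp.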
Potency is read from the fitted curve at half-maximal effect; tags tell the direction and shape of the fitted curve.

Row | Structure (SMILES) | Potency
1 | COc1ccccc1-n1nnnc1SCC(=O)NCC1(N2CCCCC2)CCCCC1 | inconclusive: 31.6 µM [inhibitor, single point]
2 | Cc1cc(NO)nc(-c2ccc(Br)cc2)n1 | inconclusive: 3.16 µM [inhibitor, full curve]
3 | O=C(NC1CCCC1)C1CC(c2ccc(F)cc2)=NO1 (centres undefined) | inconclusive: 22.4 µM [inhibitor, single point]
4 | CN(C)S(=O)(=O)c1ccc(SCC(=O)Nc2cccc(S(=O)(=O)N3CCCC3)c2)nc1 | inconclusive: 14.1 µM [inhibitor, single point]
5 | CC(=O)c1ccc(C(=O)N2CCCC(CNC(=O)c3ccccc3Cl)C2)cc1 (centres undefined) | inactive
6 | COc1ccc(-n2c(C)cc(C(=O)COc3ccc(C)nc3[N+](=O)[O-])c2C)cc1 | inconclusive: 2.82 µM [inhibitor, partial curve]
7 | O=C(NCC1CCCCC1)c1cc(S(=O)(=O)N2CCCCC2)ccc1N1CCOCC1 | inactive
8 | COC/C=C/C1=CC(=O)C[C@H](c2ccc3c(c2)OCO3)C1 | inconclusive: 5.62 µM [inhibitor, single point]
9 | COC(=O)C1=C(c2cccc(C#N)c2)C[C@@H]2CC[C@H]1N2C(=O)NCc1cccc2ccccc12 | inconclusive: 31.6 µM [inhibitor, partial curve]
10 | Cc1cc(/C=N/NC(N)=S)c(O)c(/C=N/NC(N)=S)c1 | inconclusive: 11.2 µM [inhibitor, partial curve, poor fit]
11 | O=C(c1ccc(Br)s1)N1CCCC1 | inconclusive: 31.6 µM [inhibitor, single point]
12 | COC(=O)c1cc(-c2ccc(Br)cc2)c2c(=O)n(C)c(=O)n(C)c2n1 | inactive
13 | N#Cc1nc(COc2ccccc2F)oc1NCCc1ccccc1 | inconclusive: 10 µM [inhibitor, partial curve]
14 | O=C(Nc1ccc(Cl)c(Cl)c1)Nc1nc(-c2ccccc2)cs1 | inconclusive: 31.6 µM [inhibitor, single point]
15 | CC(=O)c1sccc1NC(=O)CC(C)(C)CC(=O)O | inactive
16 | Cc1ccc(Nc2nc(-c3cccs3)cs2)nc1 | inconclusive: 31.6 µM [inhibitor, single point]
17 | COc1cc(C)c(C(=O)Oc2cc(C)c(C(=O)O)c(O)c2C)c(O)c1C(=O)O | inconclusive: 5.62 µM [inhibitor, single point]
18 | Cc1c(C(=O)N(Cc2ccccc2Cl)C2CCS(=O)(=O)C2)oc2ccccc12 (centres undefined) | inconclusive: 11.2 µM [inhibitor, partial curve]
19 | CCOC(=O)C1=CN(Cc2cccc(F)c2)S(=O)(=O)NC1CCc1ccccc1 (centres undefined) | inconclusive: 31.6 µM [inhibitor, single point]
20 | O=C(Nc1ccc(F)cc1)c1cncs1 | inactive
21 | CCNC(=S)N(Cc1cc2cc(C)cc(C)c2[nH]c1=O)C1CCCC1 | inactive
22 | NC(=O)c1cc([N+](=O)[O-])ccc1NCc1ccc(F)cc1 | active: 2.51 µM
23 | Cc1nn(Cc2ccccc2Cl)c(C)c1NC(=O)NC12CC3CC(CC(C3)C1)C2 | inconclusive: 31.6 µM [inhibitor, single point]

Row | Structure (SMILES) | Potency
24 | CCn1c(CSc2nnc(-c3ccncc3)n2CCOC)nc2cc(C(=O)O)ccc21 | inactive
25 | CN1C2CCC1CC(OC(=O)c1c[nH]c3ccccc13)C2 (centres undefined) | inconclusive: 35.5 µM [inhibitor, single point] and inconclusive: 28.2 µM [inhibitor, single point]
26 | O=C(Nc1nnc(C2CC2)s1)c1cc([N+](=O)[O-])ccc1N1CCCCC1 | inconclusive: 25.1 µM [inhibitor, partial curve]
27 | O=C(CCc1nc(-c2ccccc2F)no1)Nc1ccc(Oc2ccccc2)cc1 | inconclusive: 14.1 µM [inhibitor, single point]
28 | Cc1cc(NC(=O)c2ccc3c(c2)OCO3)ccc1NC(=O)c1ccco1 | inconclusive: 5.01 µM [inhibitor, full curve]
29 | O=C(Cc1noc2ccccc12)Nc1ccc2ccccc2c1 | inactive
30 | COC(=O)C1CCN(CC(=O)Nc2ccc(C(=O)Nc3ccccc3OC)cc2)CC1 | inconclusive: 4.47 µM [inhibitor, single point]
31 | COc1ccccc1N=Nc1c(C)n[nH]c1C | inconclusive: 14.1 µM [inhibitor, single point]
32 | COc1ccc(-c2nn(-c3ccccc3)cc2/C=N/O)cc1OC | inconclusive: 22.4 µM [inhibitor, single point]
33 | COc1ccccc1NS(=O)(=O)c1cc(NC(=O)C2=NNC(=O)CC2)ccc1C | inconclusive: 31.6 µM [inhibitor, single point]
34 | COc1ccc([N+](=O)[O-])cc1NCc1cccc([N+](=O)[O-])c1 | active: 3.98 µM
35 | O=C(CN1CCN(c2ccc(Cl)cc2)CC1)NCc1ccccc1 | inconclusive: 10 µM [inhibitor, single point]
36 | Cc1cccc(OCC(O)CN2CCN(S(=O)(=O)c3ccc(C)cc3C)CC2)c1 (centres undefined) | inconclusive: 10 µM [inhibitor, partial curve]
37 | CC(=O)C1C(=O)c2c(cccc2[N+](=O)[O-])C1=Nc1ccc(S(N)(=O)=O)cc1 (centres undefined) | inactive
38 | O=c1[nH]c(CN2CC=C(c3ccccc3)CC2)nc2scc(-c3cccs3)c12 | inconclusive: 11.2 µM [inhibitor, single point]
39 | CCC(C)/C(C)=N/NC(=O)c1ccc(COc2ccc(Cl)c(C)c2)cc1 (centres undefined) | inconclusive: 3.16 µM [inhibitor, single point]
40 | CCOC(=O)c1c(CN2CCC(C)CC2)oc2ccc(OC)cc12 | inconclusive: 11.2 µM [inhibitor, single point]
41 | CCc1c(C)sc2nc3c(C(=O)N4CCOCC4)cc(C(=O)c4ccccc4O)cn3c(=O)c12 | inconclusive: 1.58 µM [inhibitor, full curve]
42 | Cc1ccc2[nH]c(O)c(N=Nc3ccccc3C)c2c1 | inactive
43 | Cc1ccc(/C=C2\CC(C)CC3=C2NC(=S)NC3c2ccc(C)cc2)cc1 (centres undefined) | inconclusive: 31.6 µM [inhibitor, single point]
44 | COc1ccc(/C=N/Nc2cc(C)nc3ccccc23)cc1 | inconclusive: 22.4 µM [inhibitor, single point]
45 | CCCn1c(SCC(=O)c2cc(C)n(-c3ccc4c(c3)OCO4)c2C)n[nH]c1=O | inconclusive: 14.1 µM [inhibitor, single point]
46 | COc1cc(NCCCn2cnc3c(OCc4ccccc4)ncnc32)cc(OC)c1OC | inconclusive: 31.6 µM [inhibitor, single point]

Row | Structure (SMILES) | Potency
47 | CCOC(=O)C1=C(COC(=O)COc2ccc(C(=O)CC)cc2)NC(=O)NC1C (centres undefined) | inactive
48 | CCOC(=O)c1cn(CC)c2cc(N3CCOCC3)c(F)cc2c1=O | inactive
49 | COc1cccc(Oc2ccc(S(=O)(=O)N3CCCC3)cc2[N+](=O)[O-])c1 | inconclusive: 25.1 µM [inhibitor, single point]
50 | CCC(=O)NCCc1nc2cc(NC(=O)c3cccs3)ccc2n1C | inactive
51 | Cc1cc(F)ccc1S(=O)(=O)N1CCCOC1CNC(=O)C(=O)NCc1cccnc1 (centres undefined) | inconclusive: 31.6 µM [inhibitor, single point]
52 | O=S(=O)(c1ccc(NCCOc2ccccc2)nc1)N1CCCC1 | inconclusive: 10 µM [inhibitor, single point]
53 | C=C(C(=O)c1ccccc1)C(C)CC(=O)c1ccccc1 (centres undefined) | inconclusive: 31.6 µM [inhibitor, single point]
54 | Cc1cccc(NC(=O)CSc2cccc3cccnc23)c1C | inactive
55 | O=C(CSc1nn(-c2ccccc2)c(=S)s1)NC(=O)NCc1ccco1 | inconclusive: 22.4 µM [inhibitor, partial curve]
56 | CC(=O)c1cccc(NC(=O)NN2CCN(C)CC2)c1 | inactive
57 | CCN(CC)c1c([N+](=O)[O-])c(=O)n(CC)c2ccccc12 | inconclusive: 11.2 µM [inhibitor, partial curve]
58 | CN(C)/C=N/c1sc2c(c1C#N)CCCC2 | inactive
59 | COc1cccc(CNC(=O)C2Cc3cc(S(=O)(=O)N4CCCC4)ccc3N2C(C)=O)c1OC (centres undefined) | inactive
60 | COc1cc(/C=C/C(=O)NCc2cccnc2)cc(OC)c1OC | inconclusive: 31.6 µM [inhibitor, single point]
61 | CN(C)C(CNc1ncnc2sccc12)c1ccccc1 (centres undefined) | inactive
62 | COc1ccccc1C(=O)OCC(=O)Nc1cccc(S(=O)(=O)NC2=NCCCCC2)c1 | inactive
63 | O=C(Cn1nc(-c2ccccc2)c2ccccc2c1=O)Nc1cccc(O)c1 | inactive
64 | CC(=O)Nc1cccc(C(=O)NC2CCCc3c2cnn3-c2ccc(C(C)(C)C)cc2)c1 (centres undefined) | inconclusive: 11.2 µM [inhibitor, partial curve]
65 | O=C(c1ccc(-c2ccc([N+](=O)[O-])cc2)o1)N1CCCC(C(F)(F)F)C1 (centres undefined) | inconclusive: 10 µM [inhibitor, partial curve]
66 | COC(=O)Cn1c(=NC(=O)c2ccc(OC)cc2)sc2cc(OC)ccc21 | inconclusive: 1.26 µM [inhibitor, full curve]
67 | CCN(CC(=O)Nc1ccccc1OC)C(=O)c1cc(-c2ccccc2)nn1-c1ccccc1 | inconclusive: 11.2 µM [inhibitor, partial curve]
68 | CCCCSc1nnc(-c2ccccc2)c2ccccc12 | inconclusive: 35.5 µM [inhibitor, partial curve]
69 | COc1ccc(N2C(=O)CC(Sc3nnc(-c4ccccc4)o3)C2=O)cc1 (centres undefined) | inconclusive: 31.6 µM [inhibitor, single point]
